Article PMC4336329 (PLoS ONE, 2015)
The campaign covered roughly 310,000 compounds. About 2,200 (0.71%) showed an effect of 50% or more. The effect is printed as a negative number. Some of the results follow.

molecular target: human ether-à-go-go-related gene (hERG) potassium channel (human, UniProt Q12809); assay: primary screen, population patch clamp on CHO cells stably expressing hERG
Sequence (Q12809 whole entry, looked up): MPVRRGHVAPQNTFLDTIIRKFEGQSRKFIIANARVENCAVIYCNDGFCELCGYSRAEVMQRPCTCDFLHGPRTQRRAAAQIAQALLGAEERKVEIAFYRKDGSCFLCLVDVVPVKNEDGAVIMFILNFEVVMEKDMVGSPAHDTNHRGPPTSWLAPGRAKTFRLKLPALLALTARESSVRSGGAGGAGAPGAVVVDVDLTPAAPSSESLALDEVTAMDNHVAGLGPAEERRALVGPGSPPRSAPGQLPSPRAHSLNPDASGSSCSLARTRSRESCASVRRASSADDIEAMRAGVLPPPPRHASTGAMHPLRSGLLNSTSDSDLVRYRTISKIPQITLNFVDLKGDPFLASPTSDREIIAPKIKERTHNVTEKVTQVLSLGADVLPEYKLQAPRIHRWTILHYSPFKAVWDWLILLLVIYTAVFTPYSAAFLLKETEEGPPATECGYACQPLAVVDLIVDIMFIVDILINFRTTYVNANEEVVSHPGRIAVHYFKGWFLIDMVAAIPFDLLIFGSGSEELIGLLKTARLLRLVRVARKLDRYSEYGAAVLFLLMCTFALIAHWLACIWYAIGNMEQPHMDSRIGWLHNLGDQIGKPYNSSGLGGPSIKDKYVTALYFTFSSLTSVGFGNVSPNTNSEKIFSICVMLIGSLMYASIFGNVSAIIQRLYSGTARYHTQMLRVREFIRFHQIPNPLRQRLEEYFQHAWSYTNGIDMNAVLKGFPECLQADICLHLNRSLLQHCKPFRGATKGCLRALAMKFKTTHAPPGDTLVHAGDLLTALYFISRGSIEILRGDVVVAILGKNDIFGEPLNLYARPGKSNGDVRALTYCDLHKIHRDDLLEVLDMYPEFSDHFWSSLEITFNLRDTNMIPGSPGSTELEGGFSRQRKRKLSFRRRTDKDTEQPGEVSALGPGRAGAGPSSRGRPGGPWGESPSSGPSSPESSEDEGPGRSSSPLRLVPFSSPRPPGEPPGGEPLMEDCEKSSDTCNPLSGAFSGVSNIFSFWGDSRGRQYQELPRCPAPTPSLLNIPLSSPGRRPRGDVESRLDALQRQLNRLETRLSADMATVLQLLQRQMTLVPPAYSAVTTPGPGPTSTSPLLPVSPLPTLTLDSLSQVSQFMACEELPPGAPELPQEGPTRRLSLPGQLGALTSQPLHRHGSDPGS

SMILES	hERG current change (%, negative = inhibition) at 1uM
COc1cccc(-c2sc3ccc(OC)cc3c2C#CC2(O)CCCCC2)c1	14.4%
O=C(Cc1cccc(Cl)c1)Nc1ccc(Br)cc1	8.65%
O=C(CN1C(=O)c2ccccc2C1=O)Nc1ccc(Cl)cn1	24.3%
COc1ccc(C(C)=O)cc1COC(=O)CCC(=O)N(CC(C)C)c1c(N)n(CC(C)C)c(=O)[nH]c1=O	10.6%
C/C(=N\NS(=O)(=O)c1ccc(Br)cc1)c1ccc(-n2ccnc2)cc1	11.6%
O=C(Nc1c(C(=O)NCc2ccco2)cnn1-c1ccccc1)c1cccc(F)c1	-1.17%
COc1ccc(OC)c(CN2CCCC(CO)C2)c1 (stereo not drawn)	13.5%
Cc1ccc(NC(=O)C2CCN(S(=O)(=O)c3c(C)n[nH]c3C)CC2)c(C)c1	15.5%
CC1CCN(S(=O)(=O)c2ccc(NC(=O)CN3CCCC(C)C3)cc2)CC1 (stereo not drawn)	0.658%
CC(Oc1ccccc1F)C(=O)NNC(=O)c1cc2ccccc2o1 (stereo not drawn)	3.93%
Cn1c(=O)c2c(nc(Sc3ncnn3CC(=O)NC3CCCCC3)n2C)n(C)c1=O	9.2%
Cc1cc(=O)oc2cc(OCC(=O)N3CCCC3)c(Cl)cc12	1.63%
COc1ccc(CNC(=O)C(C)NS(=O)(=O)c2ccc(C)cc2)cc1 (stereo not drawn)	3.39%
CCOC(=O)Nc1ccccc1N1C(=O)c2ccccc2C1=O	11.1%
Cl.O=C(OC1CCN(CCCl)CC1)C(c1ccccc1)c1ccccc1	15.9%
CCOc1cc(S(=O)(=O)n2ccnc2)ccc1Cl	13.4%
CCOC(=O)N1CCN(c2ncnc3c2[nH]c2ccc(F)cc23)CC1	15.7%
CC(=O)N1CCN(S(=O)(=O)c2cccc(C(=O)NCCc3ccc(Cl)cc3)c2)CC1	7.17%
COc1ccccc1N1CCN(C(=O)c2cccc3c(=O)c(C)c(-c4ccccc4)oc23)CC1	2.64%
Cc1cccc(NC(=O)CSc2ccc(-c3cccnc3)nn2)c1	8.67%
CC(=O)NC1=NN(C(C)=O)C2(CCCCC2)S1	5.14%
COc1cc(NC(=S)N2CCC(C(N)=O)CC2)c(OC)cc1Cl	14.5%
C=CCn1c(SCC(=C)C)nc2c1c(=O)[nH]c(=O)n2C	-10.3%

SMILES	hERG current change (%, negative = inhibition) at 1uM
COc1cc(/C=C/C(=O)N2CCN(CC(O)COc3ccccc3)CC2)cc(OC)c1OC.Cl (stereo not drawn)	1.32%
Cc1cccc(Nc2nnc(SCC(=O)Nc3ccccc3[N+](=O)[O-])s2)c1C	10.6%
ClCC1CSC(=NC23CC4CC(CC(C4)C2)C3)O1 (stereo not drawn)	11.5%
O=C(CN1C(=O)COc2ccc(Cl)cc21)Nc1nccs1	1.62%
NS(=O)(=O)c1ccc(NC(=O)CN2CCc3ccccc3C2)cc1	9.33%
O=C(c1ccc(Cl)c(S(=O)(=O)N2CCCCC2)c1)N1CCN(Cc2ccccc2)CC1	-7.55%
O=C(CCNC(=O)c1ccccc1Cl)NCCc1ccc(C(F)(F)F)cc1	13%
OCCCc1nc2n(n1)C(c1cccs1)C=C(c1ccccc1)N2 (stereo not drawn)	7.28%
CC1CCCCN1c1ncnc2ccccc12.Cl (stereo not drawn)	3.54%
O=C(NCc1ccccc1F)c1ccc(S(=O)(=O)Nc2cccc(C(F)(F)F)c2)cc1	10.4%
CCCN1C(=O)C(NC(=O)c2ccncc2)(C(F)(F)F)C2=C1CC(C)(C)CC2=O (stereo not drawn)	9.78%
Fc1cccc(Cc2noc(CN3CCSCC3)n2)c1	17.3%
COc1ccccc1C(=O)Nc1ccc(S(=O)(=O)Nc2onc(C)c2C)cc1	3.87%
Cn1c(-c2nonc2N)nc2ccccc21	11.5%
CCCCOC(=O)C1=C(C)NC2(O)c3ccccc3C(=O)C12O (stereo not drawn)	14%
COc1ccc(N2CCN(C3CCCN(Cc4ccccc4OCCO)C3)CC2)cc1 (stereo not drawn)	8.36%
CC(=O)N1CCN(c2ccc(NCc3ccc(Br)o3)cc2)CC1	6.43%
Cc1ccc(CN(C)C(=O)c2ccccc2NC(=O)c2ccccc2)o1	7.82%
CCOc1ccc(-n2c(-c3ccco3)n[nH]c2=S)cc1	14%
Cc1cc(OCCN2CCN(S(=O)(=O)c3ccccc3F)CC2)ccc1C(C)C	7.51%
CN(C(=O)Nc1ccccc1)C1CCS(=O)(=O)C1 (stereo not drawn)	-1.61%
COc1ccc(C(=O)NCCNc2nc3c(C)cccc3cc2C#N)cc1OC	8.9%
O=S(=O)(CCN1CCCCC1)Oc1ccc(Cl)cc1Cl	7.85%

SMILES	hERG current change (%, negative = inhibition) at 1uM
COc1ccc(NC(=O)CN(C)C(=O)c2cc(C3CC3)nn2-c2ccccc2)cc1	4.02%
CCOC(=O)c1cnc(-n2cc(C)cn2)nc1Nc1ccccc1OC	-4.51%
CCCCn1c(-c2nonc2N)nc2ccccc21	16%
O=C(/C=C/c1ccc(Cl)cc1Cl)NCc1ccco1	-1.75%
Cc1ccc(NC(=O)/C(=C/c2ccncc2)NC(=O)c2ccccc2)cc1	-0.321%
O=C(Nc1nnc(SCC(=O)N2CCCCC2)s1)c1c(F)cccc1F	11.5%
O=C(CC(c1ccccc1O)N1CCCCC1)N1CCCCC1 (stereo not drawn)	3.08%
CN1C(=O)NC(c2ccccc2)C2=C1CN(c1cccc(C(F)(F)F)c1)C2=O (stereo not drawn)	2.03%
CCOC(=O)N1CCN(C(=O)CSc2ccc(-c3ccc(OC)c(OC)c3)nn2)CC1	0.431%
Cc1c(Cl)cccc1NC(=S)Nn1cnnc1	10.2%
C=CCn1c(SCC(=O)Nc2sccc2C#N)nc2sc(C)c(C)c2c1=O	11.5%
COc1cc(OC)cc(-c2nc(N)n[nH]2)c1	0.707%
CCc1noc(C)c1C(=O)Nc1ccc(F)c(F)c1F	11.7%
Cc1cc(C(=O)COc2ccc(C#N)cc2)c(C)n1C1CC1	0.682%
Cc1ccc2nc(/C(C#N)=C\c3ccc(OC(=O)c4cccs4)cc3)[nH]c2c1	1.95%
O=C(/C=C/c1cccc2ccccc12)N1CCOCC1	3.33%
O=C(O)CCC(=O)Nc1nc2ccccc2s1	-1.9%
Cc1ccc(C#N)c(SCc2ccccc2F)n1	5.63%
CCOc1ccc(/C=C2\SC(=S)N(C(C(=O)O)c3ccccc3)C2=O)cc1OC (stereo not drawn)	9.55%
CC1CCC(NC(=O)CSc2nnc(-c3cccnc3)o2)CC1 (stereo not drawn)	12.5%
COc1cccc(NC(=S)Nc2ccc(F)cc2)c1	15.8%
CCN(CC)S(=O)(=O)c1ccc(C(=O)Nc2ccc(Cc3ccncc3)cc2)cc1	-14%
CCCc1cc(=O)[nH]c(SCC(=O)N2N=C(c3ccc(Cl)cc3)CC2c2ccco2)n1 (stereo not drawn)	16.2%

SMILES	hERG current change (%, negative = inhibition) at 1uM
CC(=O)N1c2ccccc2Nc2ccccc21	8.98%
Cc1occc1C(=O)NNC1=CC(=O)CC(C)(C)C1	13.9%
O=C(NCC1CCCO1)C(c1cccnc1)N(C(=O)Cc1cccs1)c1cccnc1 (stereo not drawn)	4.83%
CCOc1ccc(C(C)NC(=O)CN2C(=O)NC3(CCCCC3)C2=O)cc1OCC (stereo not drawn)	16.1%
O=C(c1ccco1)N1CCN(C(=S)Nc2ccccc2Cl)CC1	4.93%
O=C1C2CSCN2C(=O)CN1CCCN1CCN(C(c2ccccc2)c2ccccc2)CC1 (stereo not drawn)	-10.5%
COc1nonc1NC(=O)CSc1nc2ccccc2[nH]1	8.56%
CCOC(=O)N1CCN(C(=O)/C(=C/c2cccc3ccccc23)NC(=O)c2ccc(OC)cc2)CC1	-10.5%
COc1cc(NC(=O)c2cc(OC)c(OC)c(OC)c2)c(OC)cc1NC(=O)CN1CCCCC1	8.57%
O=C(Nc1ccc(N2CCCC2)c(Cl)c1)c1ccco1	11.3%
CC(C)C1NC(=S)N(Cc2ccccc2)C1=O (stereo not drawn)	7.8%
CN(Cc1ccccc1)C(=O)Cc1ccccc1	10%
COc1ccc(S(=O)(=O)Nc2cccc(-n3cnnn3)c2)cc1OC	14.7%
CCOC(=O)c1c(-c2ccc(C)cc2)csc1NC(=O)c1cc2ccccc2oc1=O	7.55%
CC(=O)C1=NN(c2ccccc2)C(c2ccc3c(c2)OCO3)N1c1ccc(N2CCOCC2)cc1.CC(C)O (stereo not drawn)	13%
CC(=O)NCCC(=O)Nc1cccc(S(=O)(=O)N(C)c2ccccc2)c1	14.2%
CCSCCOC(=O)C1=C(C)NC(=O)NC1c1cc(OC)ccc1OC (stereo not drawn)	2.48%
Cc1sc(NC(=O)CN(Cc2ccc(F)cc2)C(=O)C(C)C)c(C(N)=O)c1C	0.629%
CC(C)(C)NC(=O)CSc1nnc(-c2c[nH]c3ccccc23)o1	8.87%
COc1ccc2cc(C(c3nnnn3C3CCCC3)N3CCOCC3)c3nnnn3c2c1 (stereo not drawn)	-1.98%
CC1(C)C(c2cccs2)=[N+]([O-])C2(CCCCC/C2=N\NC(N)=S)N1O (stereo not drawn)	-1.94%
